# Data reported in the supplement of paper PMC4967469.
# IC50 is the fitted dose that halves viability relative to control wells, and lower means more sensitive; a fit beyond the top or the lowest dose is shown as a bound at that dose. AUC sums up the same curve from the lowest dose to the 256-fold higher top dose; the more sensitive the line, the further below 1. A top dose marked as inferred was calculated from the reported fits.
# How the values were obtained:
# Assay in all cases: Viability of human cancer cell lines after 72 h of drug (GDSC screen)
# KIN001-266 = compound: CCN1CCC(n2cc(CNc3cc(Cl)c4ncc(C#N)c(Nc5ccc(F)c(Cl)c5)c4c3)nn2)CC1 [KIN001-266]; settings: top dose 20 µM; top dose inferred
# Method: (§1)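 Human cancer cell lines in 384-well plates, medium with 10% serum, drug for 72 h over a 256-fold dose range (nine 2-fold or five 4-fold steps up to the top dose). Adherent lines were fixed and stained with the nucleic acid dye Syto60, suspension lines read with resazurin; signal relative to control wells, capped at 0 and 100%. One two-parameter sigmoid per drug and line, fitted in a mixed model over all curves with the slope shared within a line.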
# QL-XII-47 = compound: C=CC(=O)N1CCc2ccc(-n3c(=O)ccc4cnc5ccc(-c6cnn(C)c6)cc5c43)cc21 [QL-XII-47]; settings: top dose 10.24 µM; top dose inferred
# Method: as §1
# CCT007093 = compound: O=C1/C(=C/c2cccs2)CC/C1=C\c1cccs1 [CCT007093]; settings: top dose 6.6 µM; top dose inferred
# Method: as §1
# BAY 61-3606 = compound: COc1ccc(-c2cc3nccn3c(Nc3ncccc3C(N)=O)n2)cc1OC [BAY 61-3606]; settings: top dose 8 µM; top dose inferred
# Method: as §1
Cell Line,AUC (KIN001-266),IC50 (KIN001-266),AUC (QL-XII-47),IC50 (QL-XII-47),AUC (CCT007093),IC50 (CCT007093),AUC (BAY 61-3606),IC50 (BAY 61-3606)
"J82 (bladder, adherent)",0.946,> 20 µM,0.954,> 10.2 µM,0.966,> 6.6 µM,0.649,1.29 µM
"TOV-112D (ovary, adherent)",0.898,> 20 µM,0.496,0.623 µM,0.971,> 6.6 µM,0.674,1.53 µM
"HPAF-II (pancreas, adherent)",0.846,> 20 µM,0.777,5.46 µM,0.957,> 6.6 µM,0.948,> 8 µM
"RPMI-8226 (myeloma, suspension)",0.874,15.2 µM,0.134,0.0567 µM,0.987,> 6.6 µM,0.943,> 8 µM
"BICR78 (head and neck, adherent)",0.922,> 20 µM,0.852,9.88 µM,0.951,> 6.6 µM,0.972,> 8 µM
"IA-LM (large cell lung carcinoma, adherent)",0.851,18.4 µM,0.761,4.05 µM,0.985,> 6.6 µM,0.752,2.95 µM
"A431 (skin, adherent)",0.828,11.7 µM,0.508,0.674 µM,0.982,> 6.6 µM,0.718,2 µM
"BxPC-3 (pancreas, adherent)",0.847,17.5 µM,0.816,6.58 µM,0.961,> 6.6 µM,0.702,1.99 µM
"BPH-1 (prostate, adherent)",0.829,14.3 µM,0.257,0.118 µM,0.937,> 6.6 µM,0.754,2.95 µM
"OCI-AML3 (acute myeloid leukaemia, suspension)",0.835,10.6 µM,0.505,0.657 µM,0.982,> 6.6 µM,0.942,> 8 µM
"RPMI-6666 (Hodgkin lymphoma, suspension)",0.802,12.2 µM,0.49,0.597 µM,0.972,> 6.6 µM,0.656,1.49 µM
"NCI-SNU-1 (stomach, suspension)",0.743,6.39 µM,0.6,1.21 µM,0.981,> 6.6 µM,0.721,2.17 µM
"SCC-25 (head and neck, adherent)",0.808,12 µM,0.579,1.08 µM,0.953,> 6.6 µM,0.929,> 8 µM
"C32 (melanoma, adherent)",0.978,> 20 µM,0.928,> 10.2 µM,0.987,> 6.6 µM,0.985,> 8 µM
"RT4 (bladder, adherent)",0.845,15.6 µM,0.611,1.32 µM,0.987,> 6.6 µM,0.82,4.91 µM
